Some of these densities may be calculated back from excess volumes.
Assay: xn = mol fraction of the nth substance listed
Details: 96.7 kPa

c1ccncc1 + CC(=O)[O-].CC[n+]1ccn(C)c1
x2 = 0
Details	mass density [kg/m3]
303.15 K	973
313.15 K	963
323.15 K	952.8
333.15 K	942.7
343.15 K	932.4
353.15 K	922.1

CC(=O)[O-].CC[n+]1ccn(C)c1 + c1ccncc1
mass density [kg/m3]
Details	x1 = 0.166	x1 = 0.318	x1 = 0.411	x1 = 0.52	x1 = 0.649	x1 = 0.806	x1 = 0.898	x1 = 1
303.15 K	1015.5	1040.8	–	1064.5	1075.4	1086.3	1091.8	1097.2
308.15 K	–	1037	1049.1	–	1072.2	–	–	1094.2
313.15 K	1007	1033.1	1045.5	1057.7	1068.9	1080	1085.7	1091.2
318.15 K	1002.8	1029.3	1041.9	1054.3	1065.7	1076.9	1082.6	1088.2
323.15 K	998.5	1025.5	1038.3	–	1062.4	1073.8	–	1085.2
328.15 K	994.3	–	1034.7	1047.5	1059.2	–	1076.6	1082.2
333.15 K	990.1	–	1031.2	1044.2	–	1067.7	1073.5	–
338.15 K	985.8	–	1027.6	1040.8	1052.8	1064.6	1070.5	1076.3
343.15 K	–	1010.6	–	1037.4	–	1061.6	1067.6	–
348.15 K	977.3	1006.9	1020.5	1034.1	1046.4	1058.5	1064.6	1070.5
353.15 K	973	–	1016.9	1030.7	1043.2	1055.5	1061.6	1067.6

Source: a compilation of properties of binary mixtures (doi:10.1016/j.molliq.2019.03.144)
